We go through one compound from PubChem BioAssay (NCI).

More than one record can exist for a structure, and the calls need not agree.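 48-hour exposure, single concentration, 96-well plates; percent growth endpoint where 0 means no net growth. Active: below 10.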 The source holds more than one record for some entries. This list holds those alone. An entry can have further records. This drug was run again and again over the years, at the concentration stated with the values; one value stands for one run. Brackets with × say how often a value occurs here.

This assay concerns 786-0 renal. In words: NCI-60 one-dose screen, 48 h (100 = growth as untreated, 0 = no growth, -100 = all killed). The following applies: 0.25 µM.

For `COc1cccc2c1C(=O)c1c(O)c3c(c(O)c1C2=O)C[C@@](O)(C(=O)CO)C[C@@H]3OC1CC(N)C(O)C(C)O1` (stereo not given in full), the growth result runs as follows: (runs of 2006) “inactive: 14.6%, 14.3%”; (runs of 2007) “active: 0.385, 9.22, -2.69, -21.6, -20.4, 1.9% and inactive: 16.1, 23.3 (2×), 11.9 (2×), 21.9, 24.3, 25.7 (2×), 25.2, 28.3, 35.7, 44.2, 23.9, 23.6 (2×), 10.4, 30.6, 19.2, 17.8, 65.9, 30.4, 23.5, 34.5, 25.5 (2×), 28.8, 30.5, 21.6, 18.5, 23.4, 29.3%”; (runs of 2008) “inactive: 42.4, 28.3, 26, 25.7, 30.3, 29, 31.7, 34.6, 33.5, 10.6 (2×), 18.4 (2×), 19.7, 21.5, 23.1, 32, 16.4, 14 (2×), 13.7 (2×), 20.1, 93.5, 20.3, 17, 19.5, 13.5, 40.4, 45.5, 31.2, 34.7, 29.4, 56.3, 13.3, 11.3, 12.4, 14.9% and active: 0.171, 6.89, 1.13, 2.75, 9.79, 7.51, -1.89, 8.66, 9.29, 8.96, 7.07, -13.8%”; (runs of 2009) “active: 6.57, -6.33, 8.86, 6.25, -8.17, 5.62, 3.51, 8.39, 7.19, 9.01, 6.17, 2.4, 7.79, 6.89, 9.25, 9.36, 6.87, 5.07, -7.76, 9.54, 7.78, -19.4, 5.41, -10.9, 9.41, -14.5, -20.8, 4.27, 6.51, 8.51, 8.44, 6.43, 8.99, 4.13, -12.8% and inactive: 29.5, 14.5 (3×), 11.7, 13.5, 29.6, 17.7, 16.4, 22.5, 26.5, 19.9, 13.7, 15.4, 16.7, 17.4 (2×), 12.8, 12, 12.2, 24.3, 10.6, 17.6, 29.2, 11.8, 13.9 (2×), 14, 16.8, 13, 10.9, 10.1, 12.7, 24.8, 25.8, 20.4, 18.2, 15.5%”; (runs of 2010) “inactive: 14.3, 26.9, 12.1, 21.8, 19.5, 17.9, 21.5 (3×), 38.7, 25.3, 32.1, 34.3 (2×), 24.2, 22.9, 24.9, 33.1, 18.6, 27.7 (2×), 34.2, 14.7, 25 (3×), 16.5, 20.9, 31, 19.3, 18.4, 42.8, 22.6, 17.3, 22, 18.3, 23.1, 16.4, 33.9, 33.4, 30.4, 29.5, 24.8, 30.1 (2×), 34.6, 21.9, 40.3% and active: 4.26%, -3.47%”; (runs of 2011) “inactive: 31.5 (2×), 28.6, 38.7, 40.7, 33.6 (2×), 29.1, 32 (2×), 41.1, 54.4 (2×), 40.2, 29.6, 35.6, 25.2, 35.2, 26.3, 29.4, 33.2, 30.5, 31.8, 29.9, 30.1, 28.5, 25.5, 22.7 (2×), 35, 33.4, 15.9, 10.3, 20.6 (3×), 12.9, 22, 17.1, 12.4, 10.2, 12.2, 14.7, 14.6, 24.7, 19.5, 10.8, 19.7, 28.7, 21.8, 16.4, 18.6, 31.7, 23.4% and active: 9.42%”. Besides, the growth result runs as follows: (runs of 2012) “inactive: 21.5, 11.4, 22.6, 19.4, 22.2, 22 (2×), 17, 24.3, 28.3, 29.7, 17.7 (2×), 20.3, 16.7, 13.7, 15.7 (2×), 16.8, 20, 12.4, 13.5, 15, 13.6, 17.9, 30.4, 29.2, 27.9, 30.6, 26.3, 23, 19.5 (2×), 22.8, 25.4, 11.2, 44.4, 19.2, 63.8, 31, 35.1, 48.1, 43.1, 41.8 (2×), 39.6, 44.5, 34.5, 29.1, 35.6, 37.9, 40, 36.1, 48.3, 46.1, 21.8, 36.9, 42.3, 39.2, 48.5, 52.9, 38.5, 36.8, 42.7, 26.5, 20.5, 26.4, 29.5, 18.1%”; (runs of 2013) “inactive: 18.2, 29.6 (2×), 32.6, 28.4 (2×), 26.2, 46.6, 40.1, 51.1, 54, 37.4, 44.5, 42.7, 44.4, 51.8, 48.7, 34.6 (2×), 37 (2×), 28.9, 33.8, 35.5 (2×), 32.3, 35.7 (2×), 39.6, 43.8 (2×), 45.8, 44.7, 42.6, 42.2, 55.5, 52.4, 46, 31.6, 39.1, 38.9, 44, 46.5, 27.3, 39.3, 27.9, 37.2, 29.1, 34, 19.4, 31.7, 41.7, 21.5, 24.1, 14.2, 14, 12.8 (2×), 24.3, 31.9, 27.7, 30.5, 17, 10.1, 17.3, 20.1, 25.3, 15.4, 21.9% and active: 8.14, 9.53, 4.65, 7.92%”; (runs of 2014) “inactive: 23.1, 23.2 (2×), 18 (2×), 19.1 (2×), 13.8, 16.5 (2×), 13, 12.3, 12.5, 18.5 (2×), 20.6, 20.5, 22, 26.2, 33.4, 31.7, 27.9, 26.7 (2×), 26.9 (2×), 17.7, 25.9 (2×), 18.9, 15.6, 22.6, 20.3, 12.8, 15.8, 12.7, 24.3, 18.3, 23 (3×), 10.8, 10.7, 16.8, 20.9, 22.2, 21.5 (2×), 18.1, 26, 30.8, 14.8, 21.8 (3×), 22.7, 16.6, 21, 14, 21.3, 20.7, 29.8, 19.9, 24.4, 15.4, 21.9% and active: 2.99, 6.54, 6.44, 3.16, 9.51, 8.79, 9.2, 7.88%”; (runs of 2015) “inactive: 28.8, 19.9 (3×), 20.4 (2×), 12 (3×), 22 (4×), 18, 16.9, 17.8, 11.7, 14.2, 33.5, 13.5 (2×), 10.6, 18.8, 19.3, 23.3, 36.2, 31.9, 21.2 (3×), 20.7, 16.6, 16.7, 20, 17.9, 27.2, 15.9, 21.9, 11.6, 20.1, 12.6, 20.5, 11, 18.7, 18.1, 24.8, 15.2, 17 (2×), 12.2, 11.4, 12.4, 22.2 (2×), 13.9, 10.4, 14.4, 23.1, 49.8, 18.2, 12.8, 23, 31.5, 29.8, 16.5, 22.8, 20.9, 24.4, 21.5, 19.7, 24.1, 23.6, 16.1, 19.2, 25.7, 30.5, 21, 35.4, 31.6, 41.1, 34.8, 38.2% and active: 8.7, 9.94, 9.61, 7.89, 2.35%”; (runs of 2016) “inactive: 20.5, 26, 20.1, 22.7 (3×), 36.3, 13.5, 22.2, 25.3, 18.4, 21.7, 22.9, 10.5, 14.2, 12.1, 17.3, 11.2, 16.9, 13.9, 15.7, 18.3, 16.2, 12.4, 16.6 (2×), 24.8, 22 (2×), 12.7 (2×), 13.3, 12.5, 21.8, 15.4, 16, 19.5, 18.5, 14.3, 20.7 (2×), 23.5, 29.4, 24.1, 29, 30.1 (2×), 34.1 (2×), 27.9, 32 (2×), 33.9, 25.2, 28.6, 31.6, 26.3 (2×), 31.2, 33.8, 37.8, 29.9, 24.3, 30.5, 23.1, 31.5 (2×), 33.2, 39.3, 31.8, 36.1, 29.8, 34.7, 32.3, 42.8, 45.1, 41, 30.6, 25, 26.8, 30.7, 30.8, 31.4, 40.8, 27.2, 32.7%”; (runs of 2017) “inactive: 23, 25.9, 21.8, 23.4 (2×), 10.6, 17.7 (2×), 23.2, 11.6, 22.5, 18.3, 11.7, 15.6, 22, 12.2 (2×), 17.2, 16.5 (2×), 12.3, 14.2, 19.9, 14.8 (2×), 17.9, 16.2, 17.8 (2×), 13.6, 13.1, 16.7 (2×), 20, 15.4, 20.5 (2×), 13.4, 16.4, 19.7 (2×), 11.3, 17.4, 19.8 (2×), 14.7, 16.1, 17.5, 25.6, 19.3, 22.8, 26.2, 28.7, 21.6, 29.9, 22.7, 21.3, 29.2, 24.2, 24.1, 17.6, 21, 16.3, 27.1, 17, 14.9 (2×), 20.3, 11.1, 19.2, 11.5, 14.4, 15.9 (2×), 15, 18.6, 16, 13.7, 18.5, 18, 21.7, 16.9% and active: 9.23%”. Also, the growth result is “inactive: 23.4, 25.9 (2×), 17.9, 16.4 (2×), 21.2, 21.7, 19.5, 20.3 (2×), 20, 19.4, 20.5 (4×), 20.2, 17.1, 16, 20.4, 18.1 (2×), 17.4, 14.5, 30.8, 18.3, 18.7, 23.9, 27.9, 30.2, 18.2, 16.3, 19.7, 21.6 (2×), 22.6, 21.8 (2×), 22.5, 18.8, 18.9 (2×), 19.9, 24.2 (2×), 28.6, 22.8 (2×), 22.7, 21.3, 15.4, 13.8, 19.1%” (runs of 2018); “inactive: 17.8 (2×), 15.3, 11.4, 21.2, 16.7, 15.8, 10.9, 14.4, 12.2, 14.2, 18.6 (2×), 18.4, 18.7, 13.7, 24.4, 18.5, 14.5 (2×), 20.4, 25, 15.9 (2×), 26, 18.3, 21.6, 16.8, 17.3, 15.7, 21, 17, 18.1, 18.9, 16.9, 14.6, 20.1, 11.6, 13.1, 13.3% and active: 7.35%, 9.45%, 9.93%” (runs of 2019); “inactive: 10, 10.9, 22, 23.2, 22.9, 23, 21.8, 15.7, 17, 18.1, 14.2, 15.4, 31, 16, 19.3 (2×), 23.1, 21.6, 25.9, 23.4, 21.5, 21.9%” (runs of 2020).
